Measurements published in PubChem BioAssay AID1159614 (National Center for Advancing Translational Sciences (NCATS), 2016).
Screen size: about 45,000 compounds; about 65 (0.1%) were called active. The call rests on the fitted dose curve; in most records, active means well fitted activation curve with a large enough effect; inconclusive means small, poorly fitted or top-dose-only effect; inactive means no such curve, though single readings can be large or run the other way. This is one part of the list.

The molecules below were run against Galactocerebrosidase (Homo sapiens) (UniProt P54803) (assay: A Novel Cell-Based Assay to Identify Small Molecules for B -Galactocerebrosidase). Conditions: 145M-Twi-hGALC-G270D cells (Twitcher mouse brain line with human GALC G270D), HMU-beta-Gal fluorescence, 48 h; series mostly up to 57.5 µM; activation: at the top concentration.
Procedure, shortened: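 Brain-derived Twitcher mouse 145M-Twi cells stably expressing human GALC-G270D or wild-type GALC, treated live, then residual GALC activity read by fluorescence of HMU-b-Gal substrate (0.1 mM final) in citrate-phosphate buffer pH 5.2 with sodium taurocholate. Signal increase indicates enhancement.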
Further: 0% is about no effect; nearly all actives have a fitted effect of over 65% in size.

Sequence of UniProt P54803 (P54803 whole entry, looked up): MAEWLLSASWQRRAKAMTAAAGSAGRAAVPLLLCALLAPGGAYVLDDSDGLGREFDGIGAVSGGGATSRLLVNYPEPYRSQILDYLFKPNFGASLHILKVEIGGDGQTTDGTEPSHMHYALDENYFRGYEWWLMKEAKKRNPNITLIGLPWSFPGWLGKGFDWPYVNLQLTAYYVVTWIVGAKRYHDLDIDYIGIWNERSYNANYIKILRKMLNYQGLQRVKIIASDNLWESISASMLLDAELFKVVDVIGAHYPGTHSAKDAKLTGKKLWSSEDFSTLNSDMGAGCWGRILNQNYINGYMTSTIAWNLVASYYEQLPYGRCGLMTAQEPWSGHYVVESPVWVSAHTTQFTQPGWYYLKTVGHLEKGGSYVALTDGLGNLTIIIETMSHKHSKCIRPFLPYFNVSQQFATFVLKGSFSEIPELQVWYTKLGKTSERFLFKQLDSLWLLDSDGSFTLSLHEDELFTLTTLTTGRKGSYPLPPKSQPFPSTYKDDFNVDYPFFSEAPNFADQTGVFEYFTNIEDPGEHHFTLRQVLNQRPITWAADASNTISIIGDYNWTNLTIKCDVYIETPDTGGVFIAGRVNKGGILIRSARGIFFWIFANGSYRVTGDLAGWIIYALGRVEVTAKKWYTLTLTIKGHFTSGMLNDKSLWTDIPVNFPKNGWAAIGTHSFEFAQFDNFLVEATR

activation, inactive:
CCc1ccccc1N1CC(c2nc3ccccc3n2CCCCOc2ccccc2OC)CC1=O (stereo not drawn) 8.01%
CC(C)NC(=O)Cc1csc2nc(-c3ccccc3)cn12 -9.11%
Cc1noc(Cn2c(=O)c3cc4c(cc3n(CC(=O)Nc3ccc(C(C)C)cc3)c2=O)OCO4)n1 -24.6%
CCOc1ccc(NS(=O)(=O)c2ccc3[nH]cc(C(=O)N4CCCC4)c(=O)c3c2)cc1 -13.3%
COc1cc2c(cc1OC)C(COc1ccc(F)cc1)N(C(=O)C(C)C)CC2 (stereo not drawn) -29.1%
O=c1n(Cc2ccccc2)nc2n1-c1ccccc1OC2 -3.66%
O=c1ccc2ccccc2o1 -17%
CC(C)c1cnc2c(c1SCc1ccc([N+](=O)[O-])cc1)c(=O)n(C)c(=O)n2C -10%
Cc1nc2nc(CNC(=O)c3cccc(F)c3)nn2c(C)c1CCC(=O)Nc1ccc(F)cc1 -9.65%
Fc1ccc(Nc2nc(SCc3ccc(Cl)cc3)nc3ccccc23)cc1 -23.1%
Cc1ccccc1C(=O)NCC(c1ccc(N(C)C)cc1)N1CCCC1 (stereo not drawn) -16.4%
COc1ccc(S(=O)(=O)N(Cc2nc(-c3ccccc3)no2)C2CCCCC2)cc1 -12.3%
Cc1cc(O)c2ccccc2c1O -12.4%
COc1cc(C2CC(=O)N(c3ccc(C)c(Cl)c3)C3=C2C(=O)OC3)cc(OC)c1OC (stereo not drawn) -3.24%
O=C(CCS(=O)(=O)c1ccc(Br)s1)Nc1c(F)cccc1F -8.47%
CNC(=O)C1CCC(Cn2c(=O)c3sccc3n(CC(=O)N3CCCCC3C)c2=O)CC1 (stereo not drawn) -29.4%
O=S(=O)(NCC(c1ccco1)S(=O)(=O)c1ccccc1)c1cc(F)ccc1F (stereo not drawn) -2.48%
Cc1cccc(-c2noc(-c3cccnc3NCc3ccccc3Cl)n2)c1 5.39%
Cc1ccc(Cl)cc1N1CCN(CCCNC(=O)Cn2ncc3c([nH]c4ccccc43)c2=O)CC1 0.239%
Cc1ccc(C)c(NC(=O)CN(C)S(=O)(=O)c2cccc3cccnc23)c1 2.88%
Cc1ccc(C(=O)Nc2ccccc2C(=O)OCc2cc(=O)n3nc(C(C)C)sc3n2)cc1 -10.4%
COc1ccc(CC(=O)NCCS(=O)(=O)N2CCN(c3ccccc3F)CC2)cc1OC -16.4%
CCOc1ccccc1NC(=O)C1CCC(CNS(=O)(=O)c2ccc3c(c2)CCCC(=O)N3)CC1 (stereo not drawn) -5.92%
CCCCCCCCCCCCCC[N+](C)(C)C -13.7%
CCc1cccc(C)c1Nc1c(-c2ccc(SC)cc2)nc2sccn12 -38.4%
COc1ccc(S(=O)(=O)c2c(Nc3c(C)cccc3C)sc(C(=O)c3ccc(F)cc3)c2N)cc1 -6.31%
Cc1ccc(CNc2nc3ccc(Cl)cc3n3cnnc23)cc1 -9.75%
COC(=O)c1ccccc1NC(=O)C1=CC(c2ccc3c(c2)OCO3)=NS(=O)(=O)N1C -9.23%
